# According to PubChem BioAssay (NCATS):
# Inconclusive results, whose numbers are uncertain, are shown with a selection of clear calls. For some of these results: No potency is given beside an inconclusive call; the fits are too rough. Activity calls are given as the source filed them. Unless noted, the call rests on the fitted dose curve; in most records, active means well fitted curve in the direction sought with a large enough effect; inconclusive means small, poorly fitted or top-dose-only effect, or another doubt; inactive means no such curve, though single readings can be large; an effect the other way counts as inactive or inconclusive.
# What was measured:
# [1] = target: Voltage-gated inwardly rectifying potassium channel KCNH2 (Homo sapiens) (UniProt Q12809); experiment: qHTS Assay for Small Molecule Inhibitors of the Human hERG Channel Activity (AID 588834);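 further: potency means the concentration at half of the fitted maximal effect; lower thallium flux fluorescence means stronger hERG block; nearly all actives have a fitted effect of over 50% in size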
# Outline: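 In hERG-transduced U2OS cells, dye-loaded for 1 hr at room temperature in dark, test compounds incubated 10 min at 37 °C before thallium stimulation. AC50 values derived by Hill modelling of concentration-response.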
# [2] = NS1 protein of Zika virus - qHTS assay to identify small molecule inhibitors in human HEK 293 cells (AID 1347053); further: nearly all actives have a fitted effect of over 55% in size
# Outline: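 Compound-treated (1 h pre-infection) HEK 293 cells infected with ZIKV MR766, MOI = 0.5; after 24 h at 37 C, NS1 read by TR-FRET; data normalized to uninfected and infected controls.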
# [3] = qHTS of pediatric cancer cell lines to identify multiple opportunities for drug repurposing: Primary screen for TC32 cells (AID 1347089); further: nearly all actives have a fitted effect of over 60% in size
# Outline: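 Luminescent CellTiter-Glo read-out of metabolically active TC32 cells after 48 h compound exposure. Primary: MIPE 11-point, 0.78 nM–46 µM; NPC 8-point, 0.59 nM–46 µM. Confirmatory: 11-point dilutions.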
# [4] = qHTS of pediatric cancer cell lines to identify multiple opportunities for drug repurposing: Primary screen for A673 cells (AID 1347092); conditions: A673 Ewing sarcoma viability, CellTiter-Glo ATP luminescence, 48 h; activity change, negative = cytotoxic: at 46 µM (top of the series); further: nearly all actives have a fitted effect of over 45% in size
# Outline: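 A673 cells (500-1,000 cells/well in growth media) were pre-incubated 5 h at 37 degrees C, then exposed to compounds for 48 h. Viability was read as CellTiter-Glo luminescence; concentration-response curves came directly from the primary screen.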
# [5] = qHTS of pediatric cancer cell lines to identify multiple opportunities for drug repurposing: Primary screen for NB-EBc1 cells (AID 1347095)
# Outline: (§1)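 Primary screen of approved and investigational compounds on cells in growth media at 37 degrees C, 5% CO2. MIPE set at 11-point and NPC set at 8-point dilutions; viability scored by ATP-based luminescence at 48 hours.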
# [6] = qHTS of pediatric cancer cell lines to identify multiple opportunities for drug repurposing: Primary screen for OHS-50 cells (AID 1347103); conditions: OHS-50 osteosarcoma viability, CellTiter-Glo luminescence, 48 h; activity change, negative = cytotoxic: at 57.3 µM (top of the series); further: nearly all actives have a fitted effect of over 40% in size; further: potency means the concentration at half of the fitted maximal effect
# Outline: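 Cells (500-1,000/well) rested 5 h, then received compounds for 48 h; metabolically active cells were measured by CellTiter-Glo luminescence. Final concentrations spanned up to 46 µM (MIPE, 11-point) or 0.59 nM-46 µM (NPC, 8-point) in primary screens, 11-point in follow-ups.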
# [7] = qHTS of pediatric cancer cell lines to identify multiple opportunities for drug repurposing: Confirmatory screen for SK-N-MC cells (AID 1347111);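 further: potency means the concentration at half of the fitted maximal effect; cells exposed to compound for 48 h before the readout; nearly all actives have a fitted effect of over 70% in size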
# Outline: (§2)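 Metabolically active cells were quantified by ATP-dependent luminescence (CellTiter-Glo, 15 min at room temperature) following 48 h treatment. Cells had been plated at 500-1,000 per well and settled for 5 h beforehand.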
# [8] = qHTS of pediatric cancer cell lines to identify multiple opportunities for drug repurposing: Confirmatory screen for LAN-5 cells (AID 1347113); further: nearly all actives have a fitted effect of over 65% in size; further: potency means the concentration at half of the fitted maximal effect
# Outline: (§3)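 Cells (500-1,000/well) in growth media were settled 5 h at 37 degrees C, then given compounds for 48 h. Viability was read as CellTiter-Glo luminescence. Primary runs used MIPE at 11 points (0.78 nM-46 µM) and NPC at 8 points (0.59 nM-46 µM); follow-ups used 11 points.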
# [9] = qHTS of pediatric cancer cell lines to identify multiple opportunities for drug repurposing: Confirmatory screen for SJ-GBM2 cells (AID 1347116); further: nearly all actives have a fitted effect of over 60% in size; further: potency means the concentration at half of the fitted maximal effect
# Outline: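 Viability measured as metabolically active cells via CellTiter-Glo luminescence following 48 hours of compound exposure, 11-point dilutions in confirmatory testing. 500-1,000 cells/well plated 5 hours before dosing; controls were DMSO and 2.3 µM bortezomib.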
# [10] = qHTS of pediatric cancer cell lines to identify multiple opportunities for drug repurposing: Confirmatory screen for control Hh wild type fibroblast cells (AID 1347121); further: nearly all actives have a fitted effect of over 70% in size
# Outline: as §3
# [11] = qHTS of pediatric cancer cell lines to identify multiple opportunities for drug repurposing: Confirmatory screen for Rh41 cells (AID 1347123); further: potency means the concentration at half of the fitted maximal effect; nearly all actives have a fitted effect of over 60% in size
# Outline: as §3
# [12] = qHTS of pediatric cancer cell lines to identify multiple opportunities for drug repurposing: Confirmatory screen for RD cells (AID 1347124);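 further: cells exposed to compound for 48 h before viability readout; nearly all actives have a fitted effect of over 65% in size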
# Outline: as §3
# [13] = qHTS of pediatric cancer cell lines to identify multiple opportunities for drug repurposing: Confirmatory screen for Rh18 cells (AID 1347125); further: potency means the concentration at half of the fitted maximal effect; nearly all actives have a fitted effect of over 55% in size
# Outline: as §3
# [14] = qHTS of pediatric cancer cell lines to identify multiple opportunities for drug repurposing: Confirmatory screen for Rh30 cells (AID 1347126); further: potency means the concentration at half of the fitted maximal effect; nearly all actives have a fitted effect of over 55% in size
# Outline: as §3
# [15] = qHTS of pediatric cancer cell lines to identify multiple opportunities for drug repurposing: Confirmatory screen for Saos-2 cells (AID 1347127); further: potency means the concentration at half of the fitted maximal effect; nearly all actives have a fitted effect of over 60% in size
# Outline: as §3
# [16] = qHTS of pediatric cancer cell lines to identify multiple opportunities for drug repurposing: Confirmatory screen for OHS-50 cells (AID 1347128);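 further: potency means the concentration at half of the fitted maximal effect; compound exposure lasted 48 h at 37 degrees C; nearly all actives have a fitted effect of over 55% in size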
# Outline: as §3
# [17] = qHTS of pediatric cancer cell lines to identify multiple opportunities for drug repurposing: Confirmatory screen for SK-N-SH cells (AID 1347129); conditions: SK-N-SH neuroblastoma cell viability
# Outline: as §3
# [18] = Primary qHTS for small molecule stabilizers of the endoplasmic reticulum resident proteome: Secreted ER Calcium Modulated Protein (SERCaMP) assay (AID 1508630); conditions: SH-SY5Y GLuc-SERCaMP (Gaussia luciferase released on ER calcium loss) secretion, thapsigargin, luminescence; series mostly up to 38.4 µM; further: potency means the concentration at half of the fitted maximal effect
# Outline: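 The SH-SY5Y reporter protocol was run at 3 concentrations up to 38.3 uM (primary) or 11 concentrations (follow-up): 16 h compound, 100 nM thapsigargin for 4 h, then extracellular luciferase luminescence.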
# CAOV3 = experiment: Primary qHTS to identify gynecologic anti-cancer compounds using libraries of approved drugs and bioactive compounds (AID 1345084); conditions: Gynecologic cancer cell panel viability, ATPlite luminescence, 48 h; series mostly up to 57.5 µM; further: nearly all actives have a fitted effect of over 55% in size
# Outline: (§4)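 Cytotoxicity screen measuring ATP content by luciferase luminescence. Each compound is applied at five concentrations for 48 h at 37 C with 5% CO2.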
# [19] = Drug repurposing screens with cells derived from glioblastoma tumor samples (AID 1345199); conditions: GBM patient neurospheres viability, ATP luminescence, 48 h; Potency: tumour line A unless noted; series mostly up to 46 µM; further: nearly all actives have a fitted effect of over 40% in size
# Outline: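 Primary testing used CD133+ neurospheres from four GBM patients, seven concentrations, 48 h exposure and ATP-based viability; confirmation added three slower-growing patient lines.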
# [20] = qHTS of pediatric cancer cell lines to identify multiple opportunities for drug repurposing: Primary screen for SK-N-MC cells (AID 1347093); conditions: SK-N-MC viability, CellTiter-Glo luminescence, 48 h; activity change, negative = cytotoxic: at 46 µM (top of the series)
# Outline: as §2
# [21] = qHTS of pediatric cancer cell lines to identify multiple opportunities for drug repurposing: Primary screen for BT-37 cells (AID 1347094)
# Outline: as §1
# [22] = qHTS of pediatric cancer cell lines to identify multiple opportunities for drug repurposing: Primary screen for Saos-2 cells (AID 1347097); conditions: Saos-2 viability, CellTiter-Glo ATP luminescence, 48 h; activity change, negative = cytotoxic: at 46 µM (top of the series); further: potency means the concentration at half of the fitted maximal effect; nearly all actives have a fitted effect of over 40% in size
# Outline: as §1
# [23] = qHTS of pediatric cancer cell lines to identify multiple opportunities for drug repurposing: Primary screen for LAN-5 cells (AID 1347100)
# Outline: as §3
# [24] = qHTS to identify inhibitors of the type 1 interferon - major histocompatibility complex class I in skeletal muscle: primary screen against the NCATS Pharmaceutical Collection (AID 1347407);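 further: luminescence of HiBiT knocked into endogenous HLA-B as interferon-induced MHC class I level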
# Outline: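 Immortalized human myoblasts (C25cl48) with HiBiT knocked into endogenous HLA-B*08:01 were stimulated with 4 ng/ml IFN-beta and treated with compounds (8-point, 1:5, top 46 uM final) for 24 h at 37 C; HiBiT lytic luminescence read.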
# [25] = target: Cytochrome P450 2D6 (Homo sapiens) (UniProt P10635); experiment: Cytochrome P450 family 2 subfamily D member 6 (CYP2D6) small molecule antagonists: luciferase biochemical (cell-free) qHTS assay (AID 1645840; active means well fitted curve in the direction sought with a large enough effect in the repeat runs; inconclusive means weak or mixed curves; inactive means no such curve, though single readings can be large; an effect the other way counts as inactive or inconclusive)
# Outline: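 P450-Glo CYP2D6 system: proluciferin substrate converted by enzyme to luciferin, read by luminescence proportional to activity. Enzyme-substrate mix with compound 10 min at room temperature, then NADPH regeneration 1 h before detection reagent.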
# [26] = target: Cytochrome P450 3A4 (Homo sapiens) (UniProt P08684); experiment: Cytochrome P450 family 3 subfamily A member 4 (CYP3A4) small molecule antagonists: luciferase qHTS assay (AID 1645841; active means well fitted curve in the direction sought with a large enough effect in the repeat runs; inconclusive means weak or mixed curves; inactive means no such curve, though single readings can be large; an effect the other way counts as inactive or inconclusive; further: potency means the concentration at half of the fitted maximal effect; nearly all actives have a fitted effect of over 45% in size)
# Outline: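 P450-Glo CYP3A4 enzyme with proluciferin substrate was preincubated with DMSO-dissolved compounds for 10 min at room temperature. NADPH regeneration solution started a 1 h reaction. Detection reagent stopped it, and luminescence was read after 20 min.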
# [27] = Primary qHTS for inhibitors of nuclear receptor binding SET domain protein 2 (NSD2) in an RCH-ACV wild type WT cells (2C) (AID 1645877); conditions: activity change, negative = cell killing: at 44.9 µM (top of the series) unless noted; further: potency means the concentration at half of the fitted maximal effect; nearly all actives have a fitted effect of over 70% in size
# Tov-21-G = experiment: Primary qHTS to identify gynecologic anti-cancer compounds using libraries of approved drugs and bioactive compounds (AID 1345084); conditions: Gynecologic cancer cell panel viability, ATPlite luminescence, 48 h; series mostly up to 57.5 µM; further: nearly all actives have a fitted effect of over 55% in size
# Outline: as §4
# [28] = qHTS of pediatric cancer cell lines to identify multiple opportunities for drug repurposing: Confirmatory screen for A673 cells (AID 1347110); further: nearly all actives have a fitted effect of over 65% in size
# Outline: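 A673 cells seeded at 500-1,000 cells/well, rested 5 h, then dosed; primary MIPE 11-point (0.78 nM to 46 µM), NPC (0.59 nM to 46 µM); confirmatory 11-point. CellTiter-Glo luminescence after 48 h.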
# [29] = qHTS of pediatric cancer cell lines to identify multiple opportunities for drug repurposing: Confirmatory screen for NB-EBc1 cells (AID 1347115); further: nearly all actives have a fitted effect of over 45% in size
# Outline: as §3
# [30] = qHTS of pediatric cancer cell lines to identify multiple opportunities for drug repurposing: Confirmatory screen for BT-37 cells (AID 1347117); further: nearly all actives have a fitted effect of over 55% in size
# Outline: as §3
# [31] = qHTS of pediatric cancer cell lines to identify multiple opportunities for drug repurposing: Confirmatory screen for TC32 cells (AID 1347118); further: potency means the concentration at half of the fitted maximal effect; nearly all actives have a fitted effect of over 65% in size
# Outline: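 Measured quantity: luminescence from CellTiter-Glo, reflecting metabolically active TC32 cells following 48 h of compound. Curves came straight from multi-point titrations, with 8 or 11 points in primary and 11 in confirmatory screening.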
# [32] = qHTS of pediatric cancer cell lines to identify multiple opportunities for drug repurposing: Confirmatory screen for MG 63 (6-TG R) cells (AID 1347119); conditions: MG-63 (6-TG resistant) osteosarcoma viability; series mostly up to 45.9 µM; further: nearly all actives have a fitted effect of over 55% in size
# Outline: as §3
# [33] = Primary qHTS for inhibitors of nuclear receptor binding SET domain protein 2 (NSD2) in an isogenic RCH-ACV NSD2 p.E1099K mutant (9B) (AID 1645876); conditions: activity change, negative = viability loss: at 44.9 µM (top of the series) unless noted; further: potency means the concentration at half of the fitted maximal effect; nearly all actives have a fitted effect of over 70% in size
# Tags describe the fitted curve by direction and shape.
# Sequence of UniProt Q12809 (Q12809 whole entry, looked up): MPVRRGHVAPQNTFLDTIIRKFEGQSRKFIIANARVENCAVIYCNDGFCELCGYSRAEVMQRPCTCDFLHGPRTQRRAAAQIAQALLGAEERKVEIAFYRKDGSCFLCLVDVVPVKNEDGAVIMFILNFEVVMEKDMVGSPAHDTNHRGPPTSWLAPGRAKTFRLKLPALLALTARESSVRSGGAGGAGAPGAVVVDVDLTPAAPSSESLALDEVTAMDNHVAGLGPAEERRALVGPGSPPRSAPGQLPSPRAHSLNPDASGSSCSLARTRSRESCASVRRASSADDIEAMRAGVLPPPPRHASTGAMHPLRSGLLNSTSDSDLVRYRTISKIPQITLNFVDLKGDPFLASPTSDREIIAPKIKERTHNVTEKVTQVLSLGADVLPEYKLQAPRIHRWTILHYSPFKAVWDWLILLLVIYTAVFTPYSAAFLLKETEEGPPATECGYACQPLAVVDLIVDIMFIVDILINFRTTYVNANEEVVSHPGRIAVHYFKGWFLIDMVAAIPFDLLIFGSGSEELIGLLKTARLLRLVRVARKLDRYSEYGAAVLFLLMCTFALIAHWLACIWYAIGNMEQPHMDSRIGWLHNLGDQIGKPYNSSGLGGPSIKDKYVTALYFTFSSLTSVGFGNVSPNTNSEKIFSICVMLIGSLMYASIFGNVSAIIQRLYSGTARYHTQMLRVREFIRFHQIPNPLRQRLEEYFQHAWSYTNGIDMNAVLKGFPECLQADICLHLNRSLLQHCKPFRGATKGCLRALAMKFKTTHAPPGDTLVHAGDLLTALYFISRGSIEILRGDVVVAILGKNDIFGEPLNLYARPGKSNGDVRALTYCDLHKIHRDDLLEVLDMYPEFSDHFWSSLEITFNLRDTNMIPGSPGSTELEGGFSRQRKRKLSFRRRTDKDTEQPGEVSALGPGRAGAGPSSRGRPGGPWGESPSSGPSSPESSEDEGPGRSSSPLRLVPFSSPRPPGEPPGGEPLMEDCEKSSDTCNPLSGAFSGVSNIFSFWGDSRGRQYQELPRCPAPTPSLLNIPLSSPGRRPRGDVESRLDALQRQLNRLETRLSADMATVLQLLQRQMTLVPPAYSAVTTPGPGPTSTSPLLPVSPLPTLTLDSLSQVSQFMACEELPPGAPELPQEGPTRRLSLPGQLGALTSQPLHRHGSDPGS
# Sequence of UniProt P10635 (P10635 whole entry, looked up): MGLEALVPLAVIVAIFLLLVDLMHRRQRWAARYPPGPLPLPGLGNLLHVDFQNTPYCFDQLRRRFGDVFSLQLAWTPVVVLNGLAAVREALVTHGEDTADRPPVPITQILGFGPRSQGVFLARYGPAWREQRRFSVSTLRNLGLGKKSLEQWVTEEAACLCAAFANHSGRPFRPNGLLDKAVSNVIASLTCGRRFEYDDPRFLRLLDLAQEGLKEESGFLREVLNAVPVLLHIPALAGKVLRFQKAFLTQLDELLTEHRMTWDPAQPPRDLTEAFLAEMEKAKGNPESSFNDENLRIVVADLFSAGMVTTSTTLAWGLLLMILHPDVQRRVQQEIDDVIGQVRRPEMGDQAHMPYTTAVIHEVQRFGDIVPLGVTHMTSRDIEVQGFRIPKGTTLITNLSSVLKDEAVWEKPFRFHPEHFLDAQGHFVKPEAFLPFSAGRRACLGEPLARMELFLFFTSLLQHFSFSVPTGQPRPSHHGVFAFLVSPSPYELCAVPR
# Sequence of UniProt P08684 (P08684 whole entry, looked up): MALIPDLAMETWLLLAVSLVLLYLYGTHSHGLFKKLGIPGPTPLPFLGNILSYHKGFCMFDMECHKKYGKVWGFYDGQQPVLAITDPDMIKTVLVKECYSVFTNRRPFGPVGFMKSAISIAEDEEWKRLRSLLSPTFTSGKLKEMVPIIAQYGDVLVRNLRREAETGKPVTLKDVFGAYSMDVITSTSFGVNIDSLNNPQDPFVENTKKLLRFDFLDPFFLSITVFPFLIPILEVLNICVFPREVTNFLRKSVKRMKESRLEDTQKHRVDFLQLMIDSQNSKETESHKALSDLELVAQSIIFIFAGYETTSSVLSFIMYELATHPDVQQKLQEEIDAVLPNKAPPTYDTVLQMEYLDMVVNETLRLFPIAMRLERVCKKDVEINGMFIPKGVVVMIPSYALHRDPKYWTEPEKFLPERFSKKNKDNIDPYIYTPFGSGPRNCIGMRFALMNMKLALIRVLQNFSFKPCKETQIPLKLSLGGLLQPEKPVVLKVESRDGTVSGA
smiles,measurement,setting,value
CCCCC/C(C=O)=C\c1ccccc1,Potency,[1],"inconclusive [inhibitor, single point]"
same,Potency,[2],inactive
same,Potency,[3],inactive
same,Potency,[4],inactive
same,Potency,[5],inactive
same,Potency,[6],active: 0.001 µM
same,Potency,[7],active: 9.27 µM
same,Potency,[8],active: 5.22 µM
same,Potency,[9],inactive
same,Potency,[10],inactive
same,Potency,[11],"inconclusive [cytotoxic, single point]"
same,Potency,[12],inactive
same,Potency,[13],"inconclusive [cytotoxic, single point]"
same,Potency,[14],"inconclusive [rising, full curve]"
same,Potency,[15],"inconclusive [cytotoxic, full curve]"
same,Potency,[16],"inconclusive [cytotoxic, single point]"
same,Potency,[17],"inconclusive [cytotoxic, partial curve, poor fit]"
same,Potency,[18],"inconclusive [inhibitor, partial curve, poor fit]"
same,Potency,CAOV3,inactive
same,Potency,[19],inactive
CC(CC(C#N)(c1ccccc1)C(C)C)N(C)C (centres undefined),Potency,[20],inactive
same,Potency,[21],inactive
same,Potency,[22],"inconclusive [cytotoxic, single point]"
same,Potency,[23],inactive
same,Potency,[6],inactive
same,Potency,[24],inactive
same,Potency,[25],active: 8.71 µM
same,Potency,[26],"inconclusive [falling, single point]"
same,Potency,[27],"inconclusive [inhibitor, partial curve, poor fit]"
same,Potency,CAOV3,inactive
same,Potency,Tov-21-G,inactive
CC(=O)OCC(=O)[C@@]1(O)[C@H](OC(C)=O)C[C@H]2[C@@H]3CCC4=CC(=O)C=C[C@]4(C)[C@@]3(F)[C@@H](O)C[C@@]21C,Potency,[4],inactive
same,Potency,[21],inactive
same,Potency,[5],inactive
same,Potency,[28],inactive
same,Potency,[7],"inconclusive [cytotoxic, single point]"
same,Potency,[8],inactive
same,Potency,[29],inactive
same,Potency,[9],"inconclusive [rising, partial curve]"
same,Potency,[30],inactive
same,Potency,[31],"inconclusive [cytotoxic, single point]"
same,Potency,[32],inactive
same,Potency,[10],inactive
same,Potency,[12],inactive
same,Potency,[14],"inconclusive [cytotoxic, full curve, poor fit]"
same,Potency,[33],"inconclusive [inhibitor, single point]"
same,Potency,[27],active: 0.0596 µM
same,Potency,CAOV3,inactive
same,Potency,Tov-21-G,inactive
